# Data: PubChem BioAssay AID686978 (National Center for Advancing Translational Sciences (NCATS), 2013)
# Hit rate of the full screen: of about 420,000 compounds, about 64,000 (15%) were called active. Inconclusive means that the source gave no clear call. Such entries were picked first, then a sample of the others. Calls follow the shape of the dose curve; as a rule, active = well fitted inhibition curve with a large enough effect; inconclusive = small, poorly fitted or top-dose-only effect; inactive = flat fitted curve, though single readings scatter. Potencies of inconclusive entries are left out as doubtful fits.
# Experiment: qHTS for Inhibitors of human tyrosyl-DNA phosphodiesterase 1 (TDP1): qHTS in cells in absence of CPT; also: nearly all actives have a fitted effect of over 55% in size
# Conditions: DT40 Tdp1-/- hTDP1 cells, no CPT, ATP luminescence, 48 h; activity change, negative = growth inhibition: at 46.2 µM (top of the series)
# Method in brief: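 Luminescent ATP content (CellTiter-Glo) served as the growth readout. Knockout chicken DT40 cells expressing human TDP1 were exposed to compounds without camptothecin for a minimum 48 hr at 37 °C.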
# % is scaled to controls: 0 for no effect and ±100 for the full control effect; potency is read from the fitted curve at half-maximal effect; tags tell the direction and shape of the fitted curve.
SMILES,Potency,"activity change, negative = growth inhibition"
Cc1ccc(C)c(Cn2c(=O)c3c(nc4n3CCN4c3ccc(F)cc3)n(C)c2=O)c1,inactive,
CCn1c(CN2CCC(C)CC2)nc2cc(NC(=O)c3ccccc3[N+](=O)[O-])ccc21,,inconclusive: -31.4% [inhibitor]
CSCCC(NC(=O)c1cccc([N+](=O)[O-])c1)c1nc2ccccc2[nH]1 (stereo not given),inactive,
O=C(NC1(C(F)(F)F)NC(=O)N(Cc2cccnc2)C1=O)c1ccccc1Cl (stereo not given),inactive,
O=C(OCc1cn([C@@H]2C[C@H](c3ccc(Cl)cc3)N(CC3CCCCC3)C[C@H]2O)nn1)c1ccccc1,"inconclusive [inhibitor, partial curve, poor fit]",
O=C(CCC(=O)Nc1ccc(F)cc1)N/N=C/c1ccc(Br)cc1,inactive,
C#CCOCCOCCOCCNc1nc(N2CCN(C(=O)CCCCCCCCCCNC(=O)[C@H](CCCCN)n3cc(C[C@@H](C)CC)nn3)CC2)nc(N2CCN(C(=O)CCCCCCCCCCNC(=O)[C@H](CCCCN)n3cc(C[C@@H](C)CC)nn3)CC2)n1,active: 9.2 µM,
Cc1ccc(NC(=O)C(=O)NCC(c2cccnc2)N2CCOCC2)cc1C (stereo not given),"inconclusive [inhibitor, single point]",
Cc1ccc(CNC(=O)CCCc2c[nH]c3ccccc23)cc1,inactive,
CC(C)C(NC(=O)C1CCC(C(C)(C)C)CC1)C(=O)NCc1cccnc1 (stereo not given),"inconclusive [inhibitor, partial curve]",
COc1cccc(NC(=O)c2ccc(-c3ccccc3[N+](=O)[O-])o2)c1,"inconclusive [inhibitor, single point]",
CCc1cccc(CC)c1N(COC)C(=O)Cn1c(C(C)O)nc2ccccc21 (stereo not given),"inconclusive [inhibitor, partial curve]",
CC(NC1CCN(Cc2ccccc2)CC1)c1ccc(F)cc1 (stereo not given),"inconclusive [inhibitor, single point]",
CCn1c2ccccc2c2n[nH]c(=S)nc21,"inconclusive [inhibitor, full curve]",
CCOC(=O)Nc1ccc2c(CN3CCN(S(=O)(=O)c4ccccc4)CC3)cc(=O)oc2c1,"inconclusive [inhibitor, single point]",
CCn1nc(C)cc1C(=O)Sc1cccc(Br)c1,active: 4.61 µM,
CN1CC(=O)Nc2ccc([N+](=O)[O-])cc2C1=O,inactive,
N=C1C(c2ccccc2)=C(O)CN1c1cccc(O)c1,inactive,
OC(c1ccc(F)c(F)c1)c1nc(-c2cc(F)cc(F)c2)cs1 (stereo not given),inactive,
CCOC(=O)N1CCN(CCC(=O)Nc2ccc(C)c(Br)c2)CC1,"inconclusive [inhibitor, partial curve]",
